# Laboratory results reported in the supplement of paper PMC4604168 (melanoma cell lines).
# Some of the results follow. Repeats are few or missing, and single values can be far off.
# System: UACC257
# Assay: cell count relative to DMSO control; melanoma cells; higher = more viable cells
# Details: library dose: standard library concentration; 72 h; first compound 2 µM
# 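Also: cells treated in 1,536-well plates, then fixed and DAPI-stained, with nuclei counted from automated high-throughput microscope images.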
row,Compound,cell count
1,C[C@@H](N)c1ccc(C(=O)Nc2ccnc3[nH]ccc23)cc1 + CO[C@@H]1[C@H](N(C)C(=O)c2ccccc2)C[C@H]2O[C@]1(C)n1c3ccccc3c3c4c(c5c6ccccc6n2c5c31)C(=O)NC4 [Midostaurin] (partner dose 0.4 µM),44.4%
2,Cn1sc(=O)n(Cc2ccccc2)c1=O + Nc1cccc2c1CN(C1CCC(=O)NC1=O)C2=O [lenalidomide] (partner dose 5 µM),99.4%
3,Cn1sc(=O)n(Cc2ccccc2)c1=O + COc1cc2c(Oc3ccc4[nH]c(C)cc4c3F)ncnc2cc1OCCCN1CCCC1 [cediranib] (partner dose 2 µM),93.6%
4,C[C@@H](N)c1ccc(C(=O)Nc2ccnc3[nH]ccc23)cc1 + Cn1sc(=O)n(Cc2ccccc2)c1=O [TDZD-8] (partner dose 2 µM),53.2%
5,C[C@@H](N)c1ccc(C(=O)Nc2ccnc3[nH]ccc23)cc1 + CC(C)C[C@H](NC(=O)[C@H](Cc1ccccc1)NC(=O)c1cnccn1)B(O)O [Bortezomib] (partner dose 0.005 µM),45.7%
6,CCCCCCCCCCCCCCCCCCOP(=O)([O-])OC1CC[N+](C)(C)CC1 [Perifosine] + C#Cc1cccc(Nc2ncnc3cc(OCCOC)c(OCCOC)cc23)c1 [erlotinib] (partner dose 4 µM),100%
7,Cn1sc(=O)n(Cc2ccccc2)c1=O + CNC(=O)c1cc(Oc2ccc(NC(=O)Nc3ccc(Cl)c(C(F)(F)F)c3)cc2)ccn1 [sorafenib] (partner dose 2 µM),81.3%
8,CCCCCCCCCCCCCCCCCCOP(=O)([O-])OC1CC[N+](C)(C)CC1 [Perifosine] + C[C@]1(c2nc3c(C(N)=O)cccc3[nH]2)CCCN1 [Veliparib] (partner dose 7 µM),99.9%
9,Cn1sc(=O)n(Cc2ccccc2)c1=O + Cc1cc(Nc2cc(N3CCN(C)CC3)nc(/C=C/c3ccccc3)n2)n[nH]1 [ENMD2076] (partner dose 0.2 µM),96.6%
10,CCCCCCCCCCCCCCCCCCOP(=O)([O-])OC1CC[N+](C)(C)CC1 [Perifosine] + COc1ccc(C2=N[C@@H](c3ccc(Cl)cc3)[C@@H](c3ccc(Cl)cc3)N2C(=O)N2CCNC(=O)C2)c(OC(C)C)c1 [Nutlin-3] (partner dose 0.5 µM),96.8%
11,Cn1sc(=O)n(Cc2ccccc2)c1=O + Cn1c(=O)n(-c2ccc(C(C)(C)C#N)cc2)c2c3cc(-c4cnc5ccccc5c4)ccc3ncc21 [NVP-BEZ235] (partner dose 0.02 µM),101%
12,C[C@@H](N)c1ccc(C(=O)Nc2ccnc3[nH]ccc23)cc1 + Nc1nc(F)nc2c1ncn2[C@@H]1O[C@H](CO)[C@@H](O)[C@@H]1O [fludarabine] (partner dose 1 µM),33.3%
13,C[C@@H](N)c1ccc(C(=O)Nc2ccnc3[nH]ccc23)cc1 + O=C(Nc1cccc(Cl)c1)Nc1ncc(CCNc2ncnc3ccsc23)s1 [SNS314] (partner dose 0.004 µM),60.1%
14,Cn1sc(=O)n(Cc2ccccc2)c1=O + O=C(O)c1ccc2c(c1)nc(Nc1cccc(Cl)c1)c1ccncc12 [CX4945] (partner dose 2 µM),101%
15,Cn1sc(=O)n(Cc2ccccc2)c1=O + COc1ccc(Cl)c(Nc2nc3ccccc3nc2NS(=O)(=O)c2cccc(NC(=O)C(C)(C)N)c2)c1 [XL147] (partner dose 4 µM),84.8%
16,CCCCCCCCCCCCCCCCCCOP(=O)([O-])OC1CC[N+](C)(C)CC1 [Perifosine] + Cn1nnc2c(C(N)=O)ncn2c1=O [temozolomide] (partner dose 10 µM),115%
17,CCCCCCCCCCCCCCCCCCOP(=O)([O-])OC1CC[N+](C)(C)CC1 [Perifosine] + Clc1ccc(Nc2nnc(Cc3ccncc3)c3ccccc23)cc1 [vatalanib] (partner dose 10 µM),85.8%
18,C[C@@H](N)c1ccc(C(=O)Nc2ccnc3[nH]ccc23)cc1 + COc1cc(Nc2ncc(F)c(Nc3ccc4c(n3)NC(=O)C(C)(C)O4)n2)cc(OC)c1OC [Tamatinib] (partner dose 2 µM),66.2%
19,C[C@@H](N)c1ccc(C(=O)Nc2ccnc3[nH]ccc23)cc1 + COc1cc2c(Oc3ccc4[nH]c(C)cc4c3F)ncnc2cc1OCCCN1CCCC1 [cediranib] (partner dose 2 µM),57.8%
